Experimental data taken from article PMC4511761, “Chromosome Missegregation Associated with RUVBL1 Deficiency” (PLoS ONE, 2015).

Biological target: T1, His-tagged RUVBL2 (murine) (mouse, UniProt Q9WTM5)
T1 construct: Murine RUVBL2 amplified from 18.81 cDNA with primers from the start codon to the stop codon, in pET28a(+); also called His-RUVBL2; source: E. coli, co-expressed with GST-tagged RUVBL1 and co-purified on GSH beads; E. coli, purified with His-RUVBL1 (Ni-NTA, Mono-Q, Superose 6); not shown: His tag, N-terminal, kept
Assay: SEC; His-RUVBL1/2 expressed in E. coli, purified by Ni-NTA, Mono-Q and Superose 6 gel filtration chromatography
Settings: both partners purified

B1: His-tagged RUVBL1 (murine) (natural protein)
chain: not shown
notes: Murine RUVBL1 amplified from 18.81 cDNA with primers from the start codon to the stop codon, subcloned in pET28a(+); also called His-RUVBL1; source: E. coli, purified with His-RUVBL2 (Ni-NTA, Mono-Q, Superose 6); not shown: His tag, N-terminal, kept
B1: binds.
